# Measurements: article PMC9911399, “Two distinct binding modes provide the RNA-binding protein RbFox with extraordinary sequence specificity”
# Numbering of substitutions follows the chain as printed; changes in the protein carry UniProt numbers. This is one part of the list.
# T1: RBFOX1 RRM (Homo sapiens, UniProt Q9NWB1 109-208)
# T1 sequence: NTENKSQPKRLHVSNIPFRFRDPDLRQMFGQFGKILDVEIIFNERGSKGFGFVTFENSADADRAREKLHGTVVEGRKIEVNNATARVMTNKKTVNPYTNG
# B1: GGCGUAA (DNA:RNA)
# RNA: GGGAGACCGGAAUUCAGAUUGUCCGGCGUAAUUAAAUCCCGUCGUAGCCACCA
# DNA 1: CAATCTGAATTCCGGTCTCCC
# DNA 2: TGGTGGCTACGACGGGATT
# B2: UGAUACG (DNA:RNA)
# RNA: B1 RNA with G25U, C27A, G28U, U29A, A30C, A31G
# DNA 1: CAATCTGAATTCCGGTCTCCC
# DNA 2: TGGTGGCTACGACGGGATT
# B3: GAGAGUG (DNA:RNA)
# RNA: B1 RNA with G26A, C27G, G28A, U29G, A30U, A31G
# DNA 1: CAATCTGAATTCCGGTCTCCC
# DNA 2: TGGTGGCTACGACGGGATT
# B4: AUUGUUU (DNA:RNA)
# RNA: B1 RNA with G25A, G26U, C27U, A30U, A31U
# DNA 1: CAATCTGAATTCCGGTCTCCC
# DNA 2: TGGTGGCTACGACGGGATT
# B5: CUGACGG (DNA:RNA)
# RNA: GGGAGACCGGAAUUCAGAUUGUCCCUGACGGUUAAAUCCCGUCGUAGCCACCA
# DNA 1: CAATCTGAATTCCGGTCTCCC
# DNA 2: TGGTGGCTACGACGGGATT
# B6: UCGGAUA (DNA:RNA)
# RNA: B1 RNA with G25U, G26C, C27G, U29A, A30U
# DNA 1: CAATCTGAATTCCGGTCTCCC
# DNA 2: TGGTGGCTACGACGGGATT
# B7: AUACAGU (DNA:RNA)
# RNA: B5 RNA with C25A, G27A, A28C, C29A, G31U
# DNA 1: CAATCTGAATTCCGGTCTCCC
# DNA 2: TGGTGGCTACGACGGGATT
# B8: CUCUUGG (DNA:RNA)
# RNA: B5 RNA with G27C, A28U, C29U
# DNA 1: CAATCTGAATTCCGGTCTCCC
# DNA 2: TGGTGGCTACGACGGGATT
# B9: GCCUUAG (DNA:RNA)
# RNA: B1 RNA with G26C, G28U, A31G
# DNA 1: CAATCTGAATTCCGGTCTCCC
# DNA 2: TGGTGGCTACGACGGGATT
# B10: CGCUGAU (DNA:RNA)
# RNA: B1 RNA with G25C, G28U, U29G, A31U
# DNA 1: CAATCTGAATTCCGGTCTCCC
# DNA 2: TGGTGGCTACGACGGGATT
# B11: UACGAGG (DNA:RNA)
# RNA: B5 RNA with C25U, U26A, G27C, A28G, C29A
# DNA 1: CAATCTGAATTCCGGTCTCCC
# DNA 2: TGGTGGCTACGACGGGATT
# B12: CACUUUA (DNA:RNA)
# RNA: B1 RNA with G25C, G26A, G28U, A30U
# DNA 1: CAATCTGAATTCCGGTCTCCC
# DNA 2: TGGTGGCTACGACGGGATT
# B13: GUGGAGC (DNA:RNA)
# RNA: B5 RNA with C25G, A28G, C29A, G31C
# DNA 1: CAATCTGAATTCCGGTCTCCC
# DNA 2: TGGTGGCTACGACGGGATT
# B14: GUAGGGC (DNA:RNA)
# RNA: B5 RNA with C25G, G27A, A28G, C29G, G31C
# DNA 1: CAATCTGAATTCCGGTCTCCC
# DNA 2: TGGTGGCTACGACGGGATT
# B15: GAAGACG (DNA:RNA)
# RNA: B1 RNA with G26A, C27A, U29A, A30C, A31G
# DNA 1: CAATCTGAATTCCGGTCTCCC
# DNA 2: TGGTGGCTACGACGGGATT
# B16: CUUCCGC (DNA:RNA)
# RNA: B5 RNA with G27U, A28C, G31C
# DNA 1: CAATCTGAATTCCGGTCTCCC
# DNA 2: TGGTGGCTACGACGGGATT
# B17: AAAACAC (DNA:RNA)
# RNA: B5 RNA with C25A, U26A, G27A, G30A, G31C
# DNA 1: CAATCTGAATTCCGGTCTCCC
# DNA 2: TGGTGGCTACGACGGGATT
# B18: CCCUAGC (DNA:RNA)
# RNA: B5 RNA with U26C, G27C, A28U, C29A, G31C
# DNA 1: CAATCTGAATTCCGGTCTCCC
# DNA 2: TGGTGGCTACGACGGGATT
# B19: ACGUUCA (DNA:RNA)
# RNA: B1 RNA with G25A, G26C, C27G, G28U, A30C
# DNA 1: CAATCTGAATTCCGGTCTCCC
# DNA 2: TGGTGGCTACGACGGGATT
# B20: CUCGUAG (DNA:RNA)
# RNA: B1 RNA with G25C, G26U, A31G
# DNA 1: CAATCTGAATTCCGGTCTCCC
# DNA 2: TGGTGGCTACGACGGGATT
# Target: T1, RBFOX1 RRM
# Assay: EMSA; HiTS-Eq, 1 nM pool, 10 min; buffer printed only for the single-RNA assays: 10 mM Tris pH 7.5, 150 mM NaCl, 3.4 mM EDTA, 0.001% NP-40, 30 C
# Conditions: tags: His6 N-terminal (pET28a); label: 5' 32P
# Summary of the method: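 These values rest on relative association constants, computed from read-count changes of each RNA species versus the control reaction and normalised to the cognate motif. Reads came from free RNA recovered by 8% native PAGE after purified RbFox RRM (wild type or mutant) at increasing concentrations was equilibrated for 10 min in 50 µL with 1 nM of a 5′-radiolabelled pool with 7 randomized nucleotides and DNA-annealed flanks.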
row,Binder,binding signal
1,B1,0.0126 KA relative to UGCAUGU
2,B2,0.0173 KA relative to UGCAUGU
3,B3,0.0169 KA relative to UGCAUGU
4,B4,0.0146 KA relative to UGCAUGU
5,B5,0.0159 KA relative to UGCAUGU
6,B6,0.00712 KA relative to UGCAUGU
7,B7,0.000579 KA relative to UGCAUGU
8,B8,0.0149 KA relative to UGCAUGU
9,B9,0.0102 KA relative to UGCAUGU
10,B10,0.0138 KA relative to UGCAUGU
11,B11,0.00815 KA relative to UGCAUGU
12,B12,0.00355 KA relative to UGCAUGU
13,B13,0.0151 KA relative to UGCAUGU
14,B14,0.00466 KA relative to UGCAUGU
15,B15,0.0102 KA relative to UGCAUGU
16,B16,0.0039 KA relative to UGCAUGU
17,B17,0.00144 KA relative to UGCAUGU
18,B18,0.00345 KA relative to UGCAUGU
19,B19,0.00409 KA relative to UGCAUGU
20,B20,0.0141 KA relative to UGCAUGU
